Results as given in patent US20230225323A1, “COMPOSITIONS AND METHODS FOR PARASITE CONTROL” (Philip Morris Products S.A., priority 2020, published 2023).
Structures can show the parent of a compound that is named as a salt. The name of at least one read-out is uncertain.

Tests used:
Type in all cases: in vivo
[1] = tested on: adult Aedes aegypti mosquitoes; assay: Mosquito repellency assay on treated warm surface (landings and probing time); settings: for Mean probing time on warm-body (% compared to control): time spent on warm surface as % of vehicle control, 100% = same time as control; for Mean repellency (% compared to control): reduction of landings vs vehicle solvent, 100% = no landings, triplicates
[2] = tested on: Rhipicephalus sanguineus tick larvae; assay: Tick repellency assay (treated quadrant of circular arena, tick movements); settings: (1−MT/MU)×100, measured for 2 minutes after 1 minute
[3] = tested on: Rhipicephalus sanguineus tick larvae; assay: Acaricidal (knockdown) activity, motility reduction over 8 minutes in the same arena; settings: % motility reduction between beginning and end of 8 minutes
[4] = 28.1 μmol/m^2 on treated quadrant
[5] = 89 μmol/m^2 on treated quadrant

SMILES: C1=C[C@H]2CC[C@@H]1N[C@@H]2c1cccnc1 (relative stereo) [exo-3-(3-pyridyl)-2-azabicyclo[2.2.2]oct-5-ene]
- Mean probing time on warm-body (% compared to control) ([1]; 75 μmol/m^2): 28.87%
- Mean repellency (% compared to control) ([1]; 75 μmol/m^2 on warm surface): 54.1%
- Mean repellency (%) [2, 4]: 52.33%
- Mean repellency (%) [2, 5]: 73.50%

SMILES: CN1CC2CCC1C=C2c1ccc(Cl)nc1 (stereo not shown) [5-(6-chloro-3-pyridyl)-2-methyl-2-azabicyclo[2.2.2]oct-5-ene]
- Mean probing time on warm-body (% compared to control) ([1]; 23.7 μmol/m^2): 46.57%
- Mean repellency (% compared to control) ([1]; 23.7 μmol/m^2 on warm surface): 68.25%
- Mean repellency (%) [2, 4]: 25.03%
- Mean repellency (%) [2, 5]: 27.53%

SMILES: C1=CC2NCC1CC2c1cccnc1 (stereo not shown) [7-(3-pyridyl)-2-azabicyclo[2.2.2]oct-5-ene]
- Mean probing time on warm-body (% compared to control) ([1]; 23.7 μmol/m^2): 51.47%
- Mean repellency (% compared to control) ([1]; 23.7 μmol/m^2 on warm surface): 60.39%
- Mean repellency (%) [2, 4]: 15.50%
- Mean repellency (%) [2, 5]: 59.07%

SMILES: CN1CC2CCC1C=C2c1cccnc1 (stereo not shown) [2-methyl-5-(3-pyridyl)-2-azabicyclo[2.2.2]oct-5-ene]
- Mean probing time on warm-body (% compared to control) ([1]; 23.7 μmol/m^2): 44.15%
- Mean repellency (% compared to control) ([1]; 23.7 μmol/m^2 on warm surface): 82.32%
- Mean repellency (%) [2, 4]: 46.23%
- Mean repellency (%) [2, 5]: 39.83%

SMILES: CCN(CC)C(=O)c1cccc(C)c1 [N,N-diethyl-3-methyl-benzamide, DEET, N,N-diethyl-3-methyl-benzamide, reference compound]
- Mean probing time on warm-body (% compared to control) ([1]; 23.7 μmol/m^2): 19.80%
- Mean repellency (% compared to control) ([1]; 23.7 μmol/m^2 on warm surface): 75.21%
- Mean repellency (%) [2, 4]: 91.83%
- Mean repellency (%) [2, 5]: 100.00%
- Knockdown activity (%) ([3]; 28.1 μmol/m^2): 0.00%
- Knockdown activity (%) ([3]; 89 μmol/m^2): 0.00%

SMILES: C1=C(c2ccccc2)C[C@@H](c2cccnc2)NC1 [3-[(2S)-4-phenyl-1,2,3,6-tetrahydropyridin-2-yl]pyridine dihydrochloride]
- Mean probing time on warm-body (% compared to control) ([1]; 23.7 μmol/m^2): 66.30%
- Mean repellency (% compared to control) ([1]; 23.7 μmol/m^2 on warm surface): 49.39%
- Mean repellency (%) [2, 4]: 88.20%
- Mean repellency (%) [2, 5]: 80.63%

SMILES: Clc1ccc(C2CC3C=CC2NC3)cn1 (stereo not shown) [7-(6-chloro-3-pyridyl)-2-azabicyclo[2.2.2]oct-5-ene]
- Mean probing time on warm-body (% compared to control) ([1]; 23.7 μmol/m^2): 59.26%
- Mean repellency (% compared to control) ([1]; 23.7 μmol/m^2 on warm surface): 57.82%
- Mean repellency (%) [2, 4]: 33.53%
- Mean repellency (%) [2, 5]: 21.20%

SMILES: CN1C2CCC(CC2)C1c1ccc(Cl)nc1 (stereo not shown) [3-(6-chloro-3-pyridyl)-2-methyl-2-azabicyclo[2.2.2]octane]
- Mean probing time on warm-body (% compared to control) ([1]; 23.7 μmol/m^2): 64.60%
- Mean repellency (% compared to control) ([1]; 23.7 μmol/m^2 on warm surface): 39.07%
- Mean repellency (%) [2, 4]: 41.97%
- Mean repellency (%) [2, 5]: 67.00%

SMILES: CN1C2CCC(CC2)C1c1ccc(-c2ccccc2)nc1 (stereo not shown) [2-methyl-3-(6-phenyl-3-pyridyl)-2-azabicyclo[2.2.2]octane hydrochloride]
- Mean probing time on warm-body (% compared to control) ([1]; 23.7 μmol/m^2): 43.54%
- Mean repellency (% compared to control) ([1]; 23.7 μmol/m^2 on warm surface): 57.06%
- Mean repellency (%) [2, 4]: 42.23%
- Mean repellency (%) [2, 5]: 26.77%

SMILES: C1=CCC(c2ccc(-c3ccccc3)nc2)NC1 (stereo not shown) [2-phenyl-5-(1,2,3,6-tetrahydropyridin-2-yl)pyridine dihydrochloride]
- Mean probing time on warm-body (% compared to control) ([1]; 23.7 μmol/m^2): 48.79%
- Mean repellency (% compared to control) ([1]; 23.7 μmol/m^2 on warm surface): 57.79%
- Mean repellency (%) [2, 4]: 82.93%
- Mean repellency (%) [2, 5]: 77.50%

SMILES: CN1CC2C=CC1C(c1ccc(Cl)nc1)C2 (stereo not shown) [7-(6-chloro-3-pyridyl)-2-methyl-2-azabicyclo[2.2.2]oct-5-ene]
- Mean probing time on warm-body (% compared to control) ([1]; 23.7 μmol/m^2): 53.84%
- Mean repellency (% compared to control) ([1]; 23.7 μmol/m^2 on warm surface): 59.30%
- Mean repellency (%) [2, 4]: 86.30%
- Mean repellency (%) [2, 5]: 97.83%

SMILES: c1cncc(OCC2CCCCN2)c1 (stereo not shown) [3-(2-piperidylmethoxy)pyridine]
- Mean probing time on warm-body (% compared to control) ([1]; 23.7 μmol/m^2): 59.79%
- Mean repellency (% compared to control) ([1]; 23.7 μmol/m^2 on warm surface): 54.17%
- Mean repellency (%) [2, 4]: 75.50%
- Mean repellency (%) [2, 5]: 91.00%

SMILES: C1=C(c2cccnc2)C2CCC1NC2 (stereo not shown) [5-(3-pyridyl)-2-azabicyclo[2.2.2]oct-5-ene]
- Mean probing time on warm-body (% compared to control) ([1]; 23.7 μmol/m^2): 84.14%
- Mean repellency (% compared to control) ([1]; 23.7 μmol/m^2 on warm surface): 50.40%
- Mean repellency (%) [2, 4]: 60.47%
- Mean repellency (%) [2, 5]: 58.40%

SMILES: CN1C2C=CC(CC2)C1c1ccc(Cl)nc1 (stereo not shown) [3-(6-chloro-3-pyridyl)-2-methyl-2-azabicyclo[2.2.2]oct-5-ene]
- Mean probing time on warm-body (% compared to control) ([1]; 23.7 μmol/m^2): 49.89%
- Mean repellency (% compared to control) ([1]; 23.7 μmol/m^2 on warm surface): 38.68%
- Mean repellency (%) [2, 4]: 29.67%
- Mean repellency (%) [2, 5]: 54.27%

SMILES: CN1C2C=CC(CC2)C1c1cccnc1 (stereo not shown) [2-methyl-3-(3-pyridinyl)-2-azabicyclo[2.2.2]oct-5-ene]
- Mean probing time on warm-body (% compared to control) ([1]; 23.7 μmol/m^2): 34.22%
- Mean repellency (% compared to control) ([1]; 23.7 μmol/m^2 on warm surface): 69.10%
- Mean repellency (%) [2, 4]: 91.37%
- Mean repellency (%) [2, 5]: 96.47%

SMILES: Clc1cc(C2CC=CCN2)cnc1Cl (stereo not shown) [2,3-dichloro-5-(1,2,3,6-tetrahydropyridin-2-yl)pyridine dihydrochloride]
- Mean probing time on warm-body (% compared to control) ([1]; 23.7 μmol/m^2): 26.95%
- Mean repellency (% compared to control) ([1]; 23.7 μmol/m^2 on warm surface): 48.47%
- Mean repellency (%) [2, 4]: 100.00%
- Mean repellency (%) [2, 5]: 100.00%

SMILES: CCOc1ccc(C2CC3C=CC2N(C)C3)cn1 (stereo not shown) [7-(6-ethoxypyridin-3-yl)-2-methyl-2-azabicyclo[2.2.2]oct-5-ene]
- Mean probing time on warm-body (% compared to control) ([1]; 23.7 μmol/m^2): 39.97%
- Mean repellency (% compared to control) ([1]; 23.7 μmol/m^2 on warm surface): 77.45%
- Mean repellency (%) [2, 4]: 78.03%
- Mean repellency (%) [2, 5]: 74.50%

SMILES: Clc1ccc(C2=CC3CCC2CN3)cn1 (stereo not shown) [5-(6-chloro-3-pyridyl)-2-azabicyclo[2.2.2]oct-5-ene hydrochloride]
- Mean probing time on warm-body (% compared to control) ([1]; 23.7 μmol/m^2): 70.65%
- Mean repellency (% compared to control) ([1]; 23.7 μmol/m^2 on warm surface): 41.31%
- Mean repellency (%) [2, 4]: 44.37%
- Mean repellency (%) [2, 5]: 39.67%

SMILES: CN1CC2C=CC1C(c1cccnc1)C2 (stereo not shown) [2-methyl-7-(3-pyridyl)-2-azabicyclo[2.2.2]oct-5-ene]
- Mean probing time on warm-body (% compared to control) ([1]; 23.7 μmol/m^2): 47.77%
- Mean repellency (% compared to control) ([1]; 23.7 μmol/m^2 on warm surface): 51.61%
- Mean repellency (%) [2, 4]: 51.60%
- Mean repellency (%) [2, 5]: 81.20%

SMILES: C1=CCC(c2cncc(N3CC4CC3CN4)c2)NC1 (stereo not shown) [2-[5-(1,2,3,6-tetrahydropyridin-2-yl)-3-pyridyl]-2,5-diazabicyclo[2.2.1]heptane dihydrochloride]
- Mean probing time on warm-body (% compared to control) ([1]; 23.7 μmol/m^2): 76.37%
- Mean repellency (% compared to control) ([1]; 23.7 μmol/m^2 on warm surface): 30.14%
- Mean repellency (%) [2, 4]: 66.33%
- Mean repellency (%) [2, 5]: 74.00%

SMILES: C#Cc1ccc(C2=CCNC(c3cccnc3)C2)cn1 (stereo not shown) [2-ethynyl-5-[2-(3-pyridyl)-1,2,3,6-tetrahydropyridin-4-yl]pyridine]
- Mean probing time on warm-body (% compared to control) ([1]; 23.7 μmol/m^2): 57.72%
- Mean repellency (% compared to control) ([1]; 23.7 μmol/m^2 on warm surface): 48.17%
- Mean repellency (%) [2, 4]: 75.80%
- Mean repellency (%) [2, 5]: 79.03%

SMILES: C#Cc1cncc(C2CC=CCN2)c1 (stereo not shown) [3-ethynyl-5-(1,2,3,6-tetrahydropyridin-2-yl)pyridine dihydrochloride]
- Mean probing time on warm-body (% compared to control) ([1]; 23.7 μmol/m^2): 63.41%
- Mean repellency (% compared to control) ([1]; 23.7 μmol/m^2 on warm surface): 38.91%
- Mean repellency (%) [2, 4]: 92.63%
- Mean repellency (%) [2, 5]: 93.93%

SMILES: CN1C2CCC(CC2)C1c1cccnc1 (stereo not shown) [2-methyl-3-(3-pyridyl)-2-azabicyclo[2.2.2]octane]
- Mean probing time on warm-body (% compared to control) ([1]; 23.7 μmol/m^2): 60.34%
- Mean repellency (% compared to control) ([1]; 23.7 μmol/m^2 on warm surface): 56.35%
- Mean probing time on warm-body (% compared to control) ([1]; 75 μmol/m^2): 9.75%
- Mean repellency (% compared to control) ([1]; 75 μmol/m^2 on warm surface): 78.00%
- Mean repellency (%) [2, 4]: 78.80%
- Mean repellency (%) [2, 5]: 96.23%

SMILES: Clc1ccc(C2CC=CCN2)cn1 (stereo not shown) [2-chloro-5-(1,2,3,6-tetrahydropyridin-2-yl)pyridine dihydrochloride]
- Mean probing time on warm-body (% compared to control) ([1]; 23.7 μmol/m^2): 69.83%
- Mean repellency (% compared to control) ([1]; 23.7 μmol/m^2 on warm surface): 33.51%
- Mean repellency (%) [2, 4]: 98.87%
- Mean repellency (%) [2, 5]: 100.00%

SMILES: C1=CC[C@@H](COc2cccnc2)NC1 [3-[[(2S)-1,2,3,6-tetrahydropyridin-2-yl]methoxy]pyridine]
- Mean probing time on warm-body (% compared to control) ([1]; 23.7 μmol/m^2): 66.81%
- Mean repellency (% compared to control) ([1]; 23.7 μmol/m^2 on warm surface): 65.00%
- Mean repellency (%) [2, 4]: 68.53%
- Mean repellency (%) [2, 5]: 78.47%

SMILES: C1=C[C@H]2CC[C@@H]1N[C@H]2c1cccnc1 (relative stereo) [endo-3-(3-pyridyl)-2-azabicyclo[2.2.2]oct-5-ene]
- Mean probing time on warm-body (% compared to control) ([1]; 75 μmol/m^2): 67.63%
- Mean repellency (% compared to control) ([1]; 75 μmol/m^2 on warm surface): 62.93%
- Mean repellency (%) [2, 4]: 24.43%
- Mean repellency (%) [2, 5]: 63.43%

SMILES: C1=C(c2cccnc2)C[C@@H](c2cccnc2)NC1 [3-[(2S)-2-(3-pyridyl)-1,2,3,6-tetrahydropyridin-4-yl]pyridine dihydrochloride]
- Mean probing time on warm-body (% compared to control) ([1]; 23.7 μmol/m^2): 38.50%
- Mean repellency (% compared to control) ([1]; 23.7 μmol/m^2 on warm surface): 47.97%
- Mean repellency (%) [2, 4]: 81.37%
- Mean repellency (%) [2, 5]: 51.73%
